# Entries after “also recorded” stand apart in the source; their conditions may differ.
# T1: N-terminal domain of CCR2 (Mus musculus, UniProt P51683)
# T1 construct: ABclonal, Woburn, MA); purchased ABclonal, Woburn, MA
# T1 sequence (P51683 1-45): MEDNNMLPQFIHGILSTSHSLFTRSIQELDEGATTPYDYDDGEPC
# Experiments:
# [1] = system: RAW 264.7 mouse macrophages; experiment: Macrophage polarization, RT-PCR of M1/M2 marker genes, RAW 264.7; format: cell-based
# Method: RAW 264.7 mouse macrophages were incubated with either LPS (100 ng/mL), IL-4 (20 ng/mL; PeproTech, Rocky Hill, NJ), or 58C-scFv (1 μM) for 24 h. For the multivalency studies, RAW 264.7 mouse macrophages were first incubated with IL-4 (20 ng/mL) for 24 h to stimulate an M2 phenotype. Following the 24 h incubation, fresh media with 58C-scFv (89 nM) was added to the cells and incubated for an additional 24 h. Total RNA was isolated with QIAzol lysis reagent (Qiagen, Germany) and total cDNA was generated using the New England Biolabs first stand synthesis kit (Ipswich, MA). RNA expression was detected by reverse transcription (RT)-PCR performed with the SYBR Green PCR kit (Qiagen). For each sample, the ΔΔCt value was calculated. Experiments were performed in triplicate. The primers were: β-actin (forward: 5′-ccctgtatgcctctggtc-3′(SEQ ID NO:10), reverse: 5′-gtctttacggatgtcaacg-3′(SEQ ID NO:11)), iNOS (forward: 5′-[…]-3′(SEQ ID NO:12), reverse: 5′-[…]-3′(SEQ ID NO:13)), IL-6 (forward: 5′-[…]-3′(SEQ ID NO:14), reverse: 5′-[…]-3′(SEQ ID NO:15)), ARG-1 (forward: 5′-[…]-3′(SEQ ID NO:16), reverse: 5′-[…]-3′(SEQ ID NO:17)), MGL2 (forward: 5′-[…]-3′(SEQ ID NO:18), reverse: 5′-[…]-3′(SEQ ID NO:19)).
# To assess the effects of the anti-CCR2 scFvs on macrophage polarization, RAW 264.7 and bone marrow-derived macrophages (BMDMs) were treated with NTD-scFv and ECL2-scFv. Inducible nitric oxide synthase (iNOS) and interleukin 6 (IL-6) were used as M1 markers. Arginase 1 (Arg1) and macrophage galactose N-acetyl-galactosamine-specific lectin 2 (Mgl2) were used as M2 markers. […] To determine whether these changes were additive, synergistic, or antagonistic, the combination indices (CI) were calculated for NTD-scFv and ECL2-scFv by treating cells with a combination of NTD-scFv and ECL2-scFv. CI was calculated by: CI=(CA,X/ICX,A)+(CB,X/ICX,B), where CA,X and CB,X are the concentration of drug A (in this case NTD-scFv) and B (here, ECL2-scFv) used in combination to achieve x % drug effect. ICX,A and ICX,B are the concentrations for the single scFvs to achieve the same effect. CI<1 indicates synergy, CI=1 indicates additivity, and CI>1 indicates antagonism. […] These studies were performed in RAW 264.7 cells (FIG. 17A, B, C), but similar results were found for bone marrow-derived macrophages isolated from BALB/c mice (FIG. 17D). As shown by the isobolograms, the M1 polarization effects occurred at lower doses when NTD-scFv was used in combination with ECL2-scFv.
# [2] = mouse, in vivo
# [3] = system: MDA-MB-231 breast cancer cells; experiment: Cell binding analysis by flow cytometry, MDA-MB-231; set-up: species or system human; details: fluorescently labeled scFv
# Method: (§1) Cells were detached with 5 mM EDTA and re-suspended in PBS to a concentration of 50,000 cells per 300 μL. Cells were plated in a 48-well plate and incubated for 30 min at 4° C. After removing the PBS solution, the cells were incubated with various dilutions of DyLight 650 NHS Ester labeled 58C-scFv for 1 h at 4° C. Cells were washed three times with 5% BSA, detached with EDTA, and analyzed in the APC channel of a MACSQuant Analyzer 10 flow cytometer (Miltenyi Biotec, Bergisch Gladbach, Germany).
# [4] = system: RAW 264.7 murine macrophages; experiment: Transwell migration assay, RAW 264.7, CCL2 chemoattractant; format: cell-based, mouse; details: for inhibition of migration: RAW 264.7, highest concentration tested, CCL2 chemoattractant
# Method: (§2) Cells were serum starved for 24 h before being detached with 5 mM EDTA in PBS and re-suspended in transwell medium (DMEM without phenol red, 25 mM HEPES, and 0.1% BSA) at a concentration of 70×10^4 cells per 100 μL. Cells were incubated with various concentrations of scFv for 30 min at 4° C. and then added to the apical chamber of either a 5 μm (RAW 264.7) or 8 μm (MDA-MB-231) pore transwell plate (Milipore Sigma, Burlington, MA). The basolateral compartment contained 25 nM of CCL2 in serum-free medium to induce chemotaxis. Cells were incubated at 37° C. with 5% CO2 for either 4 h (RAW 264.7) or 21 h (MDA-MB-231). After incubation, the cells in the apical chamber were removed and the wells were placed in a new feeder tray containing pre-warmed cell detachment solution. Wells were incubated with cell detachment buffer for 30 min at 37° C. with occasional rocking to detach migrated cells. Then, lysis buffer and dye solution were added to the detachment solution containing the migrated cells. The solution was incubated for 15 min and fluorescence measured on a SpectraMax microplate reader (Molecular Devices) with an excitation/emission of 480/520.
# [5] = system: CCR2 expressing cells vs CCR2-negative HEK cells; experiment: Cell binding, CCR2 expressing cells versus CCR2-negative HEK cells; details: MFI at 2.5 μM, DyLight-650 labeled
# Method: FIG. 2. Identification and characterization of 58C-scFv binding to CCR2. (A) Phage ELISA of clones generated through affinity selection using a scFv library. […] (E) 58C-scFv binding to RAW 264.7 (F) and MDA-MB-231 cells was concentration-dependent. (G) Mean fluorescent intensity (MFI) following incubation of HEK, MDA-MB-231, and Raw264.7 cells with the DyLight-650 labeled 58C-scFv. The MFI was determined at 2.5 μM for MDA-MB-231 and HEK, and RAW 264.7 cells. Data are represented as mean±sd, *p<0.05, **p<0.01, ***p<0.001 with one-way ANOVA followed by Dunnett's post-test.
# as §1
# [6] = system: 4T1 breast cancer cells in the mammary fat pad; experiment: 4T1 breast tumor treatment with unmodified NTD-scFv; format: in vivo, female BALB/c mice; details: 1.25 mg/kg, five doses at two-day intervals, tail vein
# Method: To assess the therapeutic efficacy of the NTD-scFv, female BALB/c mice harboring 4T1 breast cancer cells in the mammary fat pad were treated with NTD-scFv when the tumor sizes reached 150 mm^3. The NTD-scFv was administered via tail vein injection. Mice received five doses of NTD-scFv at two-day intervals at 1.25 mg/kg. PBS-treated mice served as controls.
# [7] = target: T1, N-terminal domain of CCR2; experiment: ELISA binding to biotinylated N-terminal domain CCR2 peptide (phage and recombinant scFv); set-up: species or system murine; details: phage clones, top five binders
# Method: Biotinylated N-terminal CCR2 domain was captured on magnetic streptavidin coated beads and four rounds of affinity selections were performed as previously described.^24 The selection was performed at room temperature using a phage display library that was constructed from peripheral human blood lymphocytes and that expresses single-chain fragments of antibodies. To identify CCR2 N-terminal domain binders, single bacterial colonies were picked after the fourth round of selection for phage amplification followed by a phage enzyme-linked immunosorbent assay (ELISA). Clones that yielded a signal above background were sequenced and further analyzed with regard to binding affinity.
# Nunc MaxiSorp 96-well plates were coated with NeutrAvidin at 5 μg/mL and incubated overnight at 4° C. The plate was thoroughly washed with 0.1% PBS-Tween (PBST), and 5 μg/mL biotinylated N-terminal domain CCR2 peptide ([…] (SEQ ID NO:58); ABclonal, Woburn, MA) added and incubated for 1 h at room temperature. The wells were washed with 0.1% PBST and then blocked with casein blocking buffer for 1 h at room temperature. The wells were washed with 0.1% PBST followed by incubation of serially diluted scFv for 1 h at room temperature before being washed five times with 0.1% PBST. […] The absorbance was measured at 450 nm with a FilterMax F3 & F5 multi-mode microplate reader (Molecular Devices, Sunnyvale, CA). […]
# [8] = mouse, in vivo; remark: listed apart in the source
# [9] = target: T2, human CCR2 (Homo sapiens, UniProt P41597); experiment: Cross-reactivity with human CCR2; format: binding
# T2 construct: endogenous in cells; host or cells: MDA-MB-231 human breast cancer cells
# [10] = system: RAW 264.7 macrophage cells; experiment: Cell binding analysis by flow cytometry, RAW 264.7; set-up: species or system mouse; details: fluorescently labeled scFv
# Method: FIG. 13. Binding of monomeric 58C-scFv (circles), low valency 58C-scFv attached to liposomes (triangles), and high valency 58C-scFv attached to liposomes (squares) to RAW 264.7 macrophage cells as determined by flow cytometry. […] The liposomes were incubated with DyLight 650 NHS Ester labeled 58C-scFv at 4° C. overnight. Cells were detached with 5 mM EDTA and re-suspended in PBS to a concentration of 50,000 cells per 300 μL. The cells were incubated with various dilutions of DyLight 650 NHS Ester labeled 58C-scFv (free, low degree of valency, or high degree of valency) for 1 h at 4° C. Cells were washed three times with 5% BSA and analyzed in the APC channel of a MACSQuant Analyzer 10 flow cytometer (Miltenyi Biotec, Bergisch Gladbach, Germany).
# as §1
# [11] = system: MDA-MB-231 breast cancer cells; experiment: Transwell migration assay, MDA-MB-231, CCL2 chemoattractant; format: cell-based, human; details: MDA-MB-231, highest concentration tested
# Method: as §2
# T2 sequence (P41597 whole entry): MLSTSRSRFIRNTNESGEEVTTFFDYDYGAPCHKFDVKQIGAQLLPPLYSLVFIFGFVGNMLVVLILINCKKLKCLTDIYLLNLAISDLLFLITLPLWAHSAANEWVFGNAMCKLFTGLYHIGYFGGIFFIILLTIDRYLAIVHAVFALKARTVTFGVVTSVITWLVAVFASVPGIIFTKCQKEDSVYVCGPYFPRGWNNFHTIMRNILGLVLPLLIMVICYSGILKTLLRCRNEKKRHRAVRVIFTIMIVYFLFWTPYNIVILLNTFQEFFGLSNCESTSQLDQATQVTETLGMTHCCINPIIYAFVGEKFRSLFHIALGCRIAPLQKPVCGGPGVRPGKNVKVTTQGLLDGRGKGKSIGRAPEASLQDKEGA
molecule,measurement,setting,value
"58C-scFv: scFv against the N-terminal domain of CCR2, SEQ ID NO:5 (shortened SEQ ID NO:57) (protein, listed as Homo sapiens) scFv: MKKTAIAIAVALAGFATVAQADYKDDDDKL[about 100 residues skipped]GKSSGSGSESKASEVQLLESGAEVKKPGASVKVSCKTSGYTFTTYDIYWMRLATGQRLEWMGWVNPDNGKTDYAQKFQGRVTISRDSSINTVFMELSNLRLEDTAIYFCARALTRWQQSPLGYWGQGTLVTVSSVEASAAALDYKDDDDKLDHHHHHH","M1/M2 ratio IL-6/Arg-1, increase over the negative control","[1]; RAW 264.7, 1 μM, 24 h",3.4×10^5 fold
same,"M1/M2 ratio IL-6/Mgl2, increase over the negative control","[1]; RAW 264.7, 1 μM, 24 h",1.7×10^6 fold
same,"M1/M2 ratio iNOS/Arg-1, increase over the negative control","[1]; RAW 264.7, 1 μM, 24 h",1.0×10^4 fold
same,"M1/M2 ratio iNOS/Mgl2, increase over the negative control","[1]; RAW 264.7, 1 μM, 24 h",5.1×10^4 fold
same,"macrophage polarization, M1/M2 gene expression compared to the untreated control","[1]; RAW 264.7, 24 h, LPS 100 ng/mL, IL-4 20 ng/mL, 58C-scFv 1 μM",polarized macrophages to the M1 phenotype
same,macrophage polarization on co-incubation with IL-4,"[1]; RAW 264.7, compared to IL-4 only control",able to polarize macrophages back to an M1 phenotype
same,shift of macrophage phenotype measured by the M1/M2 gene ratio,[1]; RAW 264.7 first polarized to M2 with IL-4,shifted the macrophage phenotype from M2 to M1
same,increase of M1/M2 ratios compared to commercially available CCR2-targeted antibodies,"[1]; same molar concentration, listed as NTD-scFv",7 fold
same,deposition in the kidneys,[2],high deposition
same,tumor deposition,[2],cannot be detected
same,binding to MDA-MB-231 cells,[3],bound with concentration dependence; also recorded: concentration-dependent
same,higher inhibition of macrophage migration than a commercially available CCR2-targeted antibody,[4]; RAW 264.7,40-60%
same,inhibition of migration,[4],approximately 75%
same,inhibition of migration,[4]; listed as NTD-scFv,~75%
same,binding to CCR2 expressing cells compared with CCR2-negative HEK cells,[5],significantly higher binding
same,tumor size compared with PBS-treated mice,[6],significantly smaller
same,affinity by phage ELISA,[7],highest affinity
same,distribution half-life t1/2 (α),[8],36 s
same,elimination half-life t1/2 (β),[8],16 h
same,"cross-reactivity, binding to human CCR2",[9],bind to human CCR2
same,binding to RAW 264.7 cells,[10],bound with concentration dependence; also recorded: concentration-dependent
same,inhibition of migration,[11],approximately 75%

# — patent US12428485B2, “Compositions and methods to block and bind CCR2 to modulate cellular function” (The Research Foundation for The State University of New York, priority 2019, dated 2025)
